Positions count from the first letter of the chain named. In names and notes the source's numbering stands. ± gives the standard deviation of the averaged measurements. Laboratory Escherichia coli strains with one amino-acid change in an essential protein, pooled on minimal glucose agar with carbenicillin or gentamicin at twice the control MIC (plus kanamycin and chloramphenicol for the plasmids), 48 h. Fold change of barcode share against drug-free plates; higher = less susceptible. Active = above 20 in both replicates (the paper's putatively resistant). '<' = one read or none on drug, '>' = one read or none on a drug-free plate. Shares are relative, so most strains fall below 1 when a few take over. Listed are strains with at least 15 reads on both drug-free plates, and hits; most hits rest on fewer reference reads. Replicate rank correlation about 0.5. Edits are read from barcodes.
B1: ribE I77A (protein)
chain: MNIIEANVATPDARVAITIARFNNFINDSLLEGAIDALKRIGQVKDENITVVWVPGAYELPLAAGALAKTGKYDAVAALGTVIRGGTAHFEYVAGGASNGLAHVAQDSEIPVAFGVLTTESIEQAIERAGTKAGNKGAEAALTALEMINVLKAIKA
B2: ribE L79P (protein)
chain: B1 chain with A77I, L79P
B3: ribE V76A (protein)
chain: B1 chain with V76A, A77I
B4: ribE L60Q (protein)
chain: B1 chain with L60Q, A77I
B5: ribE V76W (protein)
chain: B1 chain with V76W, A77I
B6: ribE L145Q (protein)
chain: B1 chain with A77I, L145Q
B7: ribE I77W (protein)
chain: B1 chain with A77W
B8: ribE L145A (protein)
chain: B1 chain with A77I, L145A
B9: ribE L79D (protein)
chain: B1 chain with A77I, L79D
B10: ribE I77Q (protein)
chain: B1 chain with A77Q
B11: ribE I148Q (protein)
chain: B1 chain with A77I, I148Q
B12: ribE L79Q (protein)
chain: B1 chain with A77I, L79Q
B13: ribE V76P (protein)
chain: B1 chain with V76P, A77I
B14: ribE I19A (protein)
chain: B1 chain with I19A, A77I
B15: ribE I148W (protein)
chain: B1 chain with A77I, I148W
B16: ribE L79A (protein)
chain: B1 chain with A77I, L79A
B17: ribE L60A (protein)
chain: B1 chain with L60A, A77I
B18: ribE V76Q (protein)
chain: B1 chain with V76Q, A77I
B19: ribE I19Q (protein)
chain: B1 chain with I19Q, A77I
B20: ribF M51A (protein)
chain: MKLIRGIHNLSQAPQEGCVLTIGNFDGVHRGHRALLQGLQEEGRKRNLPVAVMLFEPQPLELFATDKAPARLTRLREKLRYLAECGVDYVLCVRFDRRFAALTAQNFISDLLVKHLRVKFLAVGDDFRFGAGREGDFLLLQKAGMEYGFDITSTQTFCEGGVRISSTAVRQALADDNLALAESLLGHPFAISGRVVHGDELGRTIGFPTANVPLRRQVSPVKGVYAVEVLGLGEKPLPGVANIGTRPTVAGIRQQLEVHLLDVAMDLYGRHIQVVLRKKIRNEQRFASLDELKAQIARDELTAREFFGLTKPA
B21: ribF M51W (protein)
chain: B20 chain with A51W
B22: ribD M7P (protein)
chain: MQDEYYPARALKLAQRGRFTTHPNPNVGCVIVKDGEIVGEGYHQRAGEPHAEVHALRMAGEKAKGATAYVTLEPCSHHGRTPPCCDALIAAGVARVVASMQDPNPQVAGRGLYRLQQAGIDVSHGLMMSEAEQLNKGFLKRMRTGFPYIQLKLGASLDGRTAMASGESQWITSPQARRDVQLLRAQSHAILTSSATVLADDPALTVRWSELDEQTQALYPQQNLRQPIRIVIDSQNRVTPVHRIVQQPGETWFARTQEDSREWPETVRTLLIPEHKGHLDLVVLMMQLGKQQINSIWVEAGPTLAGALLQAGLVDELIVYIAPKLLGSDARGLCTLPGLEKLADAPQFKFKEIRHVGPDVCLHLVGA

target: Escherichia coli (laboratory strain); experiment: barcode share on antibiotic plates over drug-free plates; higher = less susceptible; conditions: antibiotic: carbenicillin; 2× MIC (3.1 µg/mL)
Experimental: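 A pool of E. coli strains, each edited to carry one amino-acid change in an essential protein, was grown for 48 h on minimal glucose agar with or without antibiotic; strain barcodes were sequenced; mean of two replicates.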

Row | Protein | fold change of barcode share
1 | B1 | 0.475 ± 0.17
2 | B2 | 0.227 ± 0.12
3 | B3 | 0.415 ± 0.37
4 | B4 | 0.353 ± 0.06
5 | B5 | 0.338 ± 0.063
6 | B6 | 0.331 ± 0.066
7 | B7 | 0.873 ± 0.046
8 | B8 | 0.298 ± 0.028
9 | B9 | 0.226 ± 0.19
10 | B10 | 0.282 ± 0.21
11 | B11 | 0.435 ± 0.2
12 | B12 | 0.315 ± 0.16
13 | B13 | 0.296 ± 0.057
14 | B14 | 0.579 ± 0.1
15 | B15 | 0.269 ± 0.16
16 | B16 | 0.365 ± 0.15
17 | B17 | 0.297 ± 0.037
18 | B18 | 0.478 ± 0.22
19 | B19 | 0.411 ± 0.22
20 | B20 | 0.313 ± 0.091
21 | B21 | 0.279 ± 0.12
22 | B22 | 0.384 ± 0.14

same assay, conditions: antibiotic: gentamicin; 2× MIC (MIC 0.45 µg/mL)

Row | Protein | fold change of barcode share
23 | B2 | < 0.0199
24 | B3 | < 0.0145
25 | B4 | 0.8495 ± 0.0031
26 | B5 | < 0.00738
27 | B6 | 0.13 ± 0.078
28 | B7 | < 0.0096
29 | B10 | < 0.0108
30 | B11 | 0.0221 ± 0.0091
31 | B13 | < 0.0165
32 | B14 | < 0.00301
33 | B15 | < 0.00953
34 | B16 | 0.37 ± 0.066
35 | B17 | 0.126 ± 0.18
36 | B19 | 0.0126 ± 0.0095
37 | B20 | 0.00466 ± 0.0031
38 | B21 | 0.121 ± 0.17
